About 2,100 (0.72%) of roughly 290,000 compounds were called active. About 4% were inconclusive and are not listed. The call rests on the fitted dose curve; in most records, active means well fitted inhibition curve with a large enough effect; inconclusive means small, poorly fitted or top-dose-only effect, or effect the other way; inactive means flat fitted curve, though single readings scatter. Only a part is listed here, and it is no random draw.
Biological target: Fructose-bisphosphate aldolase (Giardia intestinalis (strain ATCC 50803 / WB clone C6)) (UniProt A8B2U2)
Assay: qHTS Assay for Inhibitors of Fructose-1,6-bisphosphate Aldolase from Giardia Lamblia; further: nearly all actives have a fitted effect of over 55% in size
Details: purified Giardia FBPA; series mostly up to 59.6 µM; activity, negative = inhibition: at the top concentration
Excerpt: Assay Provider: Osnat Herzberg, University of Maryland
The objective of this project is to obtain compounds that inhibit Giardia lamblia growth. G. lamblia is a human pathogen which afflicts impoverished nations; it is the most common cause of outbreaks of diarrhea in the United States. During the course of our study of potential drug targets in Giardia, we have identified the Class II (Zn2+ functions in electrophilic catalysis) fructose-1,6-bisphosphate aldolase (FBPA) as an excellent candidate for drug targeting. FBPA is a key glycolytic pathway enzyme, essential for G. lamblia survival. The human FBPA belongs to the Class I aldolases, which have a different substrate binding site structure and a radically different catalytic mechanism (employing a lysine-Schiff base intermediate). Therefore, affinity-based or mechanism-based inhibitors of the Giardia FBPA are expected not to interfere with the catalytic function of the human FBPA.
A glyceraldehyde-3-phosphate dehydrogenase/triose phosphate isomerase/NAD/arsenate coupled assay was adapted to the 1536-well HTP format for use in the primary screen. This was done by coupling it to a diaphorase/resazurin/resorufin reaction that can be monitored by fluorescence (excitation, 544 nm; emission, 590 nm). Compounds identified in this screen will be further evaluated by coupling the glycerol-3-phosphate/triose phosphate isomerase/NADH assay to a phenazine methosulfate/tetranitroblue tetrazolium color reaction. False positives due to the dehydrogenases and diaphorase inhibition will be eliminated, and selectivity assay will triage inhibitors of mammalian triose phosphate isomerase and the Class I FBPA. G. lamblia FBPA inhibitors identified by the in vitro analyses will be examined for growth inhibition of Giardia trophozoites, and for cytotoxicity in human cells.
Step,Parameter,Value,Description
1,Enzyme reagent,2 uL,40 nM FBPA
2,Compound,23 nL,3.68 nM-57.5 uM final concentration
3,Time,10 min,RT Incubation
4,Substrate/detection Reagent,2 uL,Substrate + enzyme coupling system + AmpLite Red kit
5,Time,20 min,RT Incubation
6,Detector,525 nm/598 nm (Fluorescence),ViewLux Fluorescence Read (Read 1)
1,Medium-binding black solid-bottom Kalypsys plates. FRD or Kalypsys dispenser, 2 uL of FBPA enzyme. Bottle kept at 4C.
2,Compound Library (10 mM ,1:5 dilution). Pin-transferred for a [final] range of 3.68 nM-57.5 uM.
4,FRD or Kalypsys dispenser, 2 uL of reaction mixture. Bottle kept at 4C and covered in foil to protect from light.
6,ViewLux Protocol 1194; Excitation filter wheel A (525/20 Pol; BODIPY TMR FP), Emission filter wheel B (598/25 S; BODIPY TMR FP S).
Keywords: Fructose-bisphosphate aldolase, FBPA , Giardia lamblia , Giardia, HTS, Inhibitors
On the % scale 0 is the no-effect control and ±100 the full control effect; potency means the concentration at half of the fitted maximal effect.

Chain of UniProt A8B2U2 (A8B2U2 whole entry, looked up): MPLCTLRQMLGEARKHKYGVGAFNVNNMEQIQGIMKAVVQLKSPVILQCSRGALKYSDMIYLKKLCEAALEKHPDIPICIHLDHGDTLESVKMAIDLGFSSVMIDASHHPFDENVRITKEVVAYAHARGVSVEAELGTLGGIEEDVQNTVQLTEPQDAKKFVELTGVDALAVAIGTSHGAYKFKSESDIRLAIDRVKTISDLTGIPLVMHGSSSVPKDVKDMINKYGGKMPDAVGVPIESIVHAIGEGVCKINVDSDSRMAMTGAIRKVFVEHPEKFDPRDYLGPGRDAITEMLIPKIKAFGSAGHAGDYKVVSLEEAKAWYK

Compound	activity, negative = inhibition	Potency
COc1ccc(CN2C=C3C(=O)C(C)(OC(=O)C4CCCC4)C(=O)C=C3C=C2c2ccsc2)cc1 (stereo not given)	inactive: -23.4% [at 12.9 µM]	–
COc1ccc2c3c1OC1CC(O)C=C[C@@]31CCN(C)C2 (stereo not given in full)	inactive: 4.88%	–
O=[N+]([O-])c1cccc2cn[nH]c12	–	inactive
NC(=O)C1=C[C@H](c2csc3ccccc23)C[C@H](OCc2ccc(CO)cc2)O1	inactive: 19.6%	–
Oc1cc2c(cc1O)[C@H](c1ccccc1)CNCC2	inactive: -16.3%	–
CNc1ccc2oc(C[C@H]3O[C@@]4(CC[C@H]3C)O[C@H]([C@H](C)C(=O)c3ccc[nH]3)[C@H](C)C[C@H]4C)nc2c1C(=O)O	inactive: -15%	–
COC(=O)c1cccc(-c2ccc(C(c3c(C)[nH][nH]c3=O)c3c(C)[nH][nH]c3=O)o2)c1	–	active: 14.1 µM
Cc1c(O)c(=O)ccn1C	inactive: -4.58% [at 12.9 µM]	–
O=C1C2=C(c3ccccc31)[N+](=O)C1CCCCC1N2[O-] (stereo not given)	inactive: -27.1%	–
CCCCC1=CC2=C(c3ccco3)C(=O)C(C)(OC(=O)c3ccc(OC)cc3)C(=O)C2=CN1Cc1ccccc1 (stereo not given)	inactive: -27.8% [at 12.9 µM]	–
O=c1c(O)c(-c2cc(O)c(O)c(O)c2)oc2cc(O)cc(O)c12	inactive: -16.3%	–
Cc1ccc(S(=O)(=O)NC(=O)NN2CC3CCCC3C2)cc1 (stereo not given)	–	inactive
C[C@H](CCC(=O)O)C[C@H](C)C[C@H](C)C(=O)/C=C(\O)[C@H](C)C[C@H](C)C/C=C/[C@@H](C)[C@@H](O)[C@@H](C)[C@@H](O)C[C@@H]1CC[C@@](C)(C2CC[C@@](C)([C@@H](C)O)O2)O1 (stereo not given in full)	inactive: 6.4%	–
Cc1noc(NS(=O)(=O)c2ccc(N/C=C/C(=O)c3ccccc3)cc2)c1C	inactive: 27.2%	–
CC(=O)Oc1cccc2c1C(=O)c1c(OC(C)=O)cc(C(=O)O)cc1C2=O	inactive: -23.9%	–
COc1ccc(C(=O)NC(=S)N2CCNC(=O)C2)cc1Br	–	active: 17.7 µM
CCCc1c(OCCCCc2nn[nH]n2)ccc(C(C)=O)c1O	–	inactive
Cc1ccc(-c2n[nH]c(=S)n2/N=C/C=C/c2ccccc2[N+](=O)[O-])cc1	inactive: 24.2%	–
O=C(N/C(=C\c1ccco1)C(=O)N1CCCC1)c1cccs1	inactive: -12%	–
C=CCNC(=S)NS(=O)(=O)c1cccs1	–	active: 5.61 µM
CC1(C)C(O)CC[C@]2(C)C1CC[C@@]1(C)C2C(=O)C=C2[C@@H]3C[C@@](C)(C(=O)O)CC[C@@]3(C)CCC21C (stereo not given in full)	inactive: 17.9%	–
S=C(Nc1ccccn1)c1ccccn1	–	active: 3.15 µM
CCOC(=O)C1=C(C)N(c2ccccc2)C(=O)/C1=C\c1ccc(O)c(OC)c1	–	active: 17.7 µM

Compound	activity, negative = inhibition	Potency
CC1OC(OCC2OC(Oc3c(-c4ccc(O)c(O)c4)oc4cc(O)cc(O)c4c3=O)C(O)C(O)C2O)C(O)C(O)C1O (stereo not given)	inactive: -24.4%	–
C#CCNC(=O)C1=C[C@@H](c2ccc(C(F)(F)F)cc2)C[C@@H](OCCCCO)O1	inactive: -21.3%	–
COC(=O)c1ccc(C(=O)O)nc1	–	active: 19.9 µM
O=[N+]([O-])c1c(Nc2ccccn2)cc(Cl)c2nonc12	–	active: 0.446 µM
CC1(OC(=O)CCc2ccccc2)C(=O)C=C2C=C(c3ccc(C#N)cc3)N(c3ccccc3)C=C2C1=O (stereo not given)	inactive: -5.65% [at 12.9 µM]	–
c1ccc(N2CCN(Cc3nc4ccccc4[nH]3)CC2)nc1	inactive: -15.5%	–
CNCCC(Oc1ccccc1OC)c1ccccc1 (stereo not given)	inactive: 2.47%	–
COC1CCCCC1Nc1ccc(C)c(C)c1 (stereo not given)	–	active: 19.9 µM
Oc1cc2c(cc1O)[C@H]1c3ccccc3CNC1CC2 (stereo not given in full)	inactive: -6.96%	–
COC(=O)[C@@H]1[C@H]2C[C@H]3c4[nH]c5ccccc5c4CCN3C[C@@H]2CC[C@@H]1O	–	inactive
Cc1cc(C)nc(NN2C(=O)C=CC2=O)n1	–	active: 5.01 µM
Cc1ccccc1/C=N/Nc1nc2ccccc2c(=O)n1O	–	active: 17.7 µM
CNCC[C@H](Oc1ccccc1OC)c1ccccc1	inactive: -2.16% [at 21.7 µM]	–
O=C(CSc1ccc(-c2ccco2)nn1)N1CCCCC1	–	active: 12.6 µM
CCC[C@@H]1C[C@@H](C(=O)N[C@@H](C2O[C@H](SC)[C@H](O)[C@@H](O)[C@H]2O)[C@H](C)Cl)N(C)C1 (stereo not given in full)	inactive: 2.39%	–
CCCCC1=CC2=C(c3ccco3)C(=O)C(C)(OC(=O)c3ccc(OC)cc3)C(=O)C2=CN1Cc1ccco1 (stereo not given)	inactive: -22.5% [at 12.9 µM]	–
CCN(CC)C(=O)CC(c1cc(OC)c(OC)c(OC)c1)c1c(O)cc(OC)cc1OC (stereo not given)	inactive: -28%	–
Brc1c(NC2=NCCN2)ccc2nccnc12	–	inactive
Cc1ccc(S(=O)(=O)NC(=O)NN2C[C@H]3CCC[C@@H]3C2)cc1	inactive: -3.62% [at 21.7 µM]	–
COc1ccc(S(=O)(=O)N2CCC(N3CCN(Cc4ccccc4)CC3)CC2)cc1	–	active: 12.6 µM
CC(N)C(O)c1ccc(O)c(O)c1 (stereo not given)	inactive: -27.7%	–
O=S(=O)(c1cccc(C(F)(F)F)c1)N(CCCN1CCOCC1)Cc1cccs1	inactive: -15.3%	–

Reference: PubChem BioAssay AID2451 (National Center for Advancing Translational Sciences (NCATS), 2010)
